# ± gives the standard deviation. In all, about 5,500 sequences were measured (“pre-steady-state target cleavage rate”: median about 0.1, highest 2% from about 0.64 on). The list shows a part of the results, in another mix than the full data.
# System: MIWI (PIWIL1) piRISC loaded with piRNA #2 (30 nt)
# Assay: pre-steady-state target cleavage rate (min^-1); MIWI and MILI are mouse PIWI proteins and EfPiwi is from a freshwater sponge; tags in brackets are library labels; higher = faster piRNA-guided slicing of the target
# Conditions: guide: piRNA #2 5'p-UUAGGUAACCCAGUAGAUCCAGAGGAAUUC; auxiliary factor: 500 nM mouse GTSF1
# Outline: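 Cleave-'n-Seq measured uncleaved targets by sequencing after a transcribed, DNA-blocked target RNA library […] was mixed with 1 nM active affinity-purified piRISC holding one synthetic guide, with or without 500 nM GTSF1 partner protein, at 33 °C in HEPES–potassium acetate buffer for 0–8 or 0–960 min. Counts were normalised to depth and to weakly complementary targets, three trials were pooled, and k3 was capped at 0.0001 min^-1. A burst-and-steady-state fit gave the pre-steady-state cleavage rate.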
row,Sequence,pre-steady-state target cleavage rate
1,CUUAAGGUCUGGAUCUACUGCGUUACGUAA,0.311 ± 0.045
2,CUUAAGGAGUGGAUGCUACUGGGUUACCUAA,0.00794 ± 0.0076
3,CUUAACCUGUGGAUCUACUGGCUUACCUAA,0.0457 ± 0.013
4,CUUUUCCUCUGCAUCUACUGGGUUACCAAA,0.254 ± 0.043
5,GAAUUCGUCUGGAUCUACUGGCUUACCUAA,0.111 ± 0.037
6,CUAUUCCUCUGGUUCUACAGGGUUACCUAA,0.355 ± 0.032
7,CUUAUCCUGUGGAUCUACUGCGUUACCUAA,0.33 ± 0.066
8,CUUAAGGUCUGGAUCUACAGCGUUACCUAA,0.0335 ± 0.0059
9,CUUAACCACUGGAUCUUCUGGGUUACCUAA,0.277 ± 0.032
10,CUUAUCCUCUGGAACUUCUGGGUUACCUAA,0.288 ± 0.028
11,CUAUACCUCUGGAUCUACUCGGUUACCUAA,0.105 ± 0.013
12,CUUAACCUCUUGAUCUACUGGGUUACCUAA,0.421 ± 0.026
13,GAAUUCCUGUGGAUCUACAGGGUUACCUAA,0.428 ± 0.026
14,CUUAACCACUGGAACUACUGGGUUACCUAA,0.292 ± 0.025
15,CUUUUCGUCUGGAUCUACUCGGUUACCUAA,0.0353 ± 0.018
16,GAAUUCCUCUCGAUCUACUGGGUUAGCUAA,0.237 ± 0.052
17,CUUUUCCACUGGAUCUACUGGGUUACGUAA,0.505 ± 0.053
18,CUAUUACUCUGGAUCUACUGGGUUACCUAA,0.107 ± 0.025
19,CAAUUCCUCUGGAUCUUCUGGGUUACCAAA,0.302 ± 0.065
20,GAAUUCCUCAGGAUCUAGUGGGUUACCUAA,0.264 ± 0.029
21,CUUAAGCUCUGGAUGUACUGGCUUACCUAA,0.0718 ± 0.014
22,CUUAUCCUCUGGAACUACUGGGUUAGCUAA,0.223 ± 0.027
23,CUUAACCUCUGGAUCUACUGGGUUACCUAG [g2:g25:cont:t1G],0.23 ± 0.054
24,GAAUUCGUCUGGAUCAACUGGGUUACCUAA,0.236 ± 0.041

row,Sequence,pre-steady-state target cleavage rate
1,CUUAAGGAGUGGAUCUACUGGGUCACCUAA,0.094 ± 0.018
2,CAAUUCCUCUGGUUCUUCUGGGUUACCUAA,0.491 ± 0.054
3,CUAUUCCUCUGGAUCUACUGGUUACCUAA,0.104 ± 0.026
4,CUUAAGGAGACCAUCUACUCGGUUAGCUAA,< 0.0001
5,CUAUUCCUCUGGAACUACUGGGUUACCUUA,0.238 ± 0.037
6,CUUAUCCUCUGGAUCUACUGGGAUACCUUA,0.291 ± 0.066
7,CUUAACGCUCUGGAUCUACUGGGUUACCUAA,0.091 ± 0.011
8,CUUAUCGCUCUGGAUCUACUGGGUUACCUAA,0.0755 ± 0.011
9,CUUAACCUCUGGAUUCUACUGGGUUACCUAA,0.122 ± 0.021
10,CUUAUCCUCUGGAUCUACUGCGUAACCUAA,0.203 ± 0.047
11,CUUAAGGAGUGGAUGUACUGGGUUUCCUAA,0.00484 ± 0.0041
12,CUUAUGCUCUGGAUCUACUGGCUUACCUAA,0.0508 ± 0.0081
13,GAAUUCCUCUGGAUCUAUGGGUUACCUAA,0.0103 ± 0.0032
14,CUUUUCCUCUGGAACUACAGGGUUACCUAA,0.382 ± 0.033
15,CUUAUCCUCUGCAUCAACUGGGUUACCUAA,0.322 ± 0.025
16,CUUAUCCUGUGGAUCUACUGGGUAACCUAA,0.133 ± 0.034
17,GUAUUCCUCUCGAUCUACUGGGUUACCUAA,0.193 ± 0.044
18,CUUAAGGAGUGGAUCUACAGCGUUACCUAA,0.00429 ± 0.0025
19,CUUUUCCUCUCGAUCUACUGGCUUACCUAA,0.201 ± 0.016
20,CUUAAGCUCUGGAUCUACUGGCUUUCCUAA,0.0162 ± 0.0083
21,GAAUUCCUCUGGAACUACUGGGUAACCUAA,0.234 ± 0.038
22,CUUAAGCUCUGGUUCUACUGGGUUUCCUAA,0.0607 ± 0.015
23,CAAUUCCUCUGGAUGUACUGGGUUAGCUAA,0.299 ± 0.038
24,GAAUUCCUCUGGAUCUACCGGGUUACCUAA,0.096 ± 0.012

row,Sequence,pre-steady-state target cleavage rate
1,CAAUUCCUCUGGAUCUACUGGGUUACCUAG [g2:g29:cont:t1G],0.539 ± 0.071
2,CUUAUCCUCUGGAUCAACUGGGUAACCUAA,0.117 ± 0.024
3,CUUAAGCAGAGGAUCUACUGGGUUACCUAA,0.0315 ± 0.0087
4,CUUAAGGACUGGAUCUACUGGGUUACAUAA,0.432 ± 0.083
5,CUAUUCCUCUGGAUCUACUCGGUUUCCUAA,0.0443 ± 0.016
6,GAAUUGCUCUGGAUCUACUCGGUUACCUAA,0.0184 ± 0.0089
7,CUUAAGCUCUGGAUCUACUGGGAUUCCUAA,0.0152 ± 0.0052
8,CUUAUCCUCUGGAUGUACUGGCUUACCUAA,0.0994 ± 0.027
9,CUUUUCCUCUGGAUCUACUGGGUUACCCAA,0.234 ± 0.071
10,CUUAAGGUCUGGAUGUACUGGGUUACCAAA,0.0658 ± 0.038
11,CUUAAGGUCUCCAUCUACUGGGUUACCUAA,0.00681 ± 0.0025
12,CUAUUCCUCUGGUUCUACUGCGUUACCUAA,0.389 ± 0.036
13,CUUAAGGAGUGGAUCUACUGGGUUACCUGA,0.0407 ± 0.012
14,GAAUUCCUCAGGAUCUACUCGGUUACCUAA,0.134 ± 0.02
15,CUUAUCCUCUGGAAUCUACUGGGUUACCUAA,0.337 ± 0.037
16,CUUAAGGAGUUGGAUCUACUGGGUUACCUAA,0.133 ± 0.016
17,CAAUUCCUCUGGAGUCUACUGGGUUACCUAA,0.525 ± 0.048
18,CAUAUCCUCUGGAUCUACUGGGUUACCUAA,0.528 ± 0.071
19,CUUAUCCUCUGGAUCUACCGGGUUACCUAA,0.156 ± 0.018
20,CAAUUGCUCUGGAUCAACUGGGUUACCUAA,0.293 ± 0.036
21,CUUAAGGUCUGGAUCUACUGGCUUACGUAA,0.0447 ± 0.023
22,CAAUUCCAGAGGAUCUACUGGGUUACCUAA,0.215 ± 0.03
23,CUUAAGCUCUGGAUCUACUGGGUUAGGAUA [g6:g24:cont:t1A],0.0163 ± 0.011

# — the supplement of paper PMC10338343
